# Source: the BET-seq Pho4 binding data (Le et al. 2018)
# This is one part of the list. Values were computed here from the reads of four pooled replicates and scatter widely.
# Biological target: T1, Pho4 (S. cerevisiae) (UniProt P07270)
# T1 sequence: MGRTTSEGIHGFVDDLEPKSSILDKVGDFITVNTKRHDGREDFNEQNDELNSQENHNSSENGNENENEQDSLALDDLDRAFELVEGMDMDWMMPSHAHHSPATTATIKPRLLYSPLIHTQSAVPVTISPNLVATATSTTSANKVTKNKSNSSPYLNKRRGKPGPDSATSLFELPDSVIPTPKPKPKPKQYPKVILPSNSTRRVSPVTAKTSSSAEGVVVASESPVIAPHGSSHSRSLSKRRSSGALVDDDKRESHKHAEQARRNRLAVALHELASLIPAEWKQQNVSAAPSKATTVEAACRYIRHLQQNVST
# Experiment: relative binding free energy (BET-seq); higher = weaker binding
# Conditions: reference: library average
row,Sequence,relative binding free energy [kcal/mol]
1,GGCTGCACGTGTAGGC,0.09
2,AGTAACACGTGTTAGT,0.01
3,CAAGGCACGTGGGTAG,-0.27
4,ACTTGCACGTGTTAGG,0.12
5,GAGTTCACGTGGTGGA,0.26
6,TCGGACACGTGTGGCG,-0.01
7,TCGGACACGTGGTTAG,0.14
8,TAGAACACGTGTGTAT,0.1
9,TGGTTCACGTGAGGTG,0.35
10,AGTTGCACGTGTGACT,0.03
11,TCGGCCACGTGGGGGC,-0.05
12,TCGTGCACGTGCTTTT,-0.03
13,GTAAGCACGTGGGCCG,-0.09
14,GGAAACACGTGTGTTG,0.1
15,CGTAACACGTGGAGGG,-0.08
16,GAGGTCACGTGATGAG,0.35
17,ATGTTCACGTGAATAG,0.28
18,TAAGTCACGTGATTGG,0.26
19,CGTTGCACGTGAGTAG,0.27
20,GTGGGCACGTGGGATC,-0.11
21,TGGGGCACGTGCTTGC,-0.27
22,GTATACACGTGTGGTG,0.01
23,GGATTCACGTGGCGTG,0.29
24,TTGGGCACGTGTTGCT,-0.01
25,TTCGGCACGTGGCTTG,-0.18
26,TTTTTCACGTGGGCGT,0.15

row,Sequence,relative binding free energy [kcal/mol]
1,TGTGACACGTGATGCG,-0.14
2,GTTTACACGTGCGGTT,0.11
3,GTCTGCACGTGTGAGA,0.09
4,GTAGACACGTGGTCGG,-0.05
5,TAGGGCACGTGTCGTG,-0.13
6,AGTGGCACGTGTGGTG,0.02
7,GTTGGCACGTGTGTCT,-0.07
8,GTGTGCACGTGTGGCA,0.04
9,TGTTGCACGTGAGGTG,0.19
10,TAGGACACGTGAATGT,0.18
11,CGTGACACGTGAAGGT,0.2
12,ATGTACACGTGAATAG,0.24
13,GGTGTCACGTGGCCGT,0.07
14,CTATGCACGTGATGTT,0.14
15,TGTTCCACGTGGTGCA,-0.01
16,ATGGGCACGTGGGTGT,-0.22
17,TTATTCACGTGTTAAT,0.28
18,GAAGTCACGTGATATG,0.13
19,TGGTACACGTGTAAAT,0.34
20,TTGATCACGTGTCTTG,0.16
21,TGGCACACGTGGGGCG,-0.1
22,TATGGCACGTGATTAT,0
23,TGGTGCACGTGTATTG,-0.07
24,TGAGCCACGTGATTTG,0.23
25,GCGATCACGTGGGCTG,0.04
26,TTTGTCACGTGGCGGC,0.04

row,Sequence,relative binding free energy [kcal/mol]
1,TTGATCACGTGTACGG,0.23
2,TTTGTCACGTGTTAAC,0.13
3,GATAGCACGTGCGGGA,-0.07
4,AGCGGCACGTGTGGAG,-0.12
5,TGTTCCACGTGTTGAT,0.01
6,CCGGGCACGTGGGGGT,-0.29
7,TAGATCACGTGTTAGG,0.21
8,GTGTACACGTGAGGGC,0.31
9,TGGAGCACGTGAGGTT,0.18
10,GTGTCCACGTGGGTTA,-0.04
11,TGTAACACGTGTTATG,-0.07
12,TGGGACACGTGTTTGT,0.05
13,GGTATCACGTGAATAG,0.51
14,GGTGTCACGTGGGACC,0.02
15,CTTTACACGTGTGTCT,0.12
16,TTTTACACGTGTTGTG,0.19
17,TAGCTCACGTGGTGGT,0.33
18,GTTAGCACGTGTTGGA,-0.02
19,TTGTACACGTGGAAGT,0.13
20,TGGATCACGTGGCTGG,0.17
21,CGGGGCACGTGTAATA,0.1
22,AGTATCACGTGGGTAA,0.19
23,TGGAACACGTGCTGGG,0.02
24,TGGTTCACGTGAAAAG,0.34
25,GTTCTCACGTGATTGT,0.23
26,GTGTCCACGTGGGGGG,-0.08

row,Sequence,relative binding free energy [kcal/mol]
1,AGTTGCACGTGTTTAT,-0.03
2,GTAGACACGTGGTTTT,0.03
3,CGGGTCACGTGGAGGA,0.15
4,ATGGACACGTGAGGCG,0.16
5,TGTCACACGTGGTAGT,-0.03
6,AGGGTCACGTGAGCGT,0.19
7,GGTTGCACGTGTGCCG,0.11
8,GCGCACACGTGTGGGT,-0.05
9,TTCTGCACGTGGGTTT,-0.16
10,TGCTTCACGTGGCTTG,0.09
11,ATGGGCACGTGTAGGC,-0.04
12,TTATTCACGTGCGTTC,0.27
13,ATGTGCACGTGATAGG,0.05
14,TTATTCACGTGGAAAG,0.36
15,GCGTGCACGTGGGTAA,0.01
16,GTTTTCACGTGTTTGC,0.22
17,TTTGTCACGTGTGCCG,0.04
18,TCTTGCACGTGTCGGT,0.04
19,TTTGGCACGTGGTCTA,-0.28
20,GTCAACACGTGGAGGT,0.06
21,TTGCTCACGTGGGCGT,0.08
22,GTTCTCACGTGAGGGG,0.45
23,GAGGACACGTGGTTGT,0.06
24,CGAGGCACGTGTGTAT,-0.04
25,AGAGTCACGTGAGTGG,0.32
26,ATGTACACGTGGTGAC,0.11

row,Sequence,relative binding free energy [kcal/mol]
1,GTGTACACGTGATCGA,0.23
2,ATATTCACGTGTGTCT,0.29
3,GCTGGCACGTGTGGAA,0.09
4,CTTAGCACGTGAGGCG,0.15
5,GGGTACACGTGTGTAA,0.13
6,GGGAGCACGTGGCTGG,-0.11
7,TGATTCACGTGTTACG,0.28
8,TCAGGCACGTGAGTGT,-0.09
9,GAGTGCACGTGTTCTG,-0.06
10,TGAATCACGTGTGATA,0.32
11,ATTGTCACGTGCAGTG,0.14
12,ACGGGCACGTGATGGG,0.04
13,ATTTTCACGTGGATGC,0.18
14,GGCGGCACGTGCTTGA,0.03
15,TGTATCACGTGAGCCG,0.38
16,AGGCTCACGTGTGGCT,0.3
17,GTGGCCACGTGGCGGT,-0.15
18,GTCATCACGTGTGAGG,0.1
19,AGGATCACGTGGGGTG,0.06
20,CGGAGCACGTGGTATT,-0.09
21,TACTGCACGTGGGATT,-0.15
22,GGGGTCACGTGGTTAA,0.23
23,AAAGTCACGTGCTTTG,-0.02
24,GATGACACGTGATGGT,0.21
25,AGTAGCACGTGTTTAA,-0.17
26,AACTGCACGTGGGGTT,-0.16

row,Sequence,relative binding free energy [kcal/mol]
1,TATTTCACGTGTCTAT,0.26
2,ATTGACACGTGAGGTC,0.21
3,TGTGACACGTGAGGCT,0.17
4,TTGTGCACGTGTGCGC,-0.04
5,TTGTGCACGTGGAGCG,-0.09
6,GGAGACACGTGGTGAG,-0.07
7,CGTTACACGTGGTGTT,-0.03
8,GTTAGCACGTGGCGGG,-0.13
9,GTTGACACGTGTCTGG,-0.04
10,GCGTTCACGTGTTGGG,0.32
11,GGCAGCACGTGGGTGC,-0.14
12,TTCATCACGTGTGTAG,0.09
13,TACGTCACGTGGGATT,-0.04
14,AAGGGCACGTGTACTT,-0.07
15,TTGTTCACGTGTTCGA,0.14
16,GTGCGCACGTGTAGGT,-0.01
17,CGACGCACGTGGGTTG,-0.2
18,TTAAGCACGTGTGTCG,-0.12
19,TGTTCCACGTGTTGTA,0.22
20,GGTGTCACGTGGGCTT,0.02
21,GTGTTCACGTGATTGC,0.34
22,TCGTTCACGTGCTTGT,0.01
23,TGCATCACGTGTTTAG,0.27
24,GCGGCCACGTGAGGGT,0.04
25,GTTTTCACGTGGTTTG,0.34
26,TGTCGCACGTGTGGGC,-0.02

row,Sequence,relative binding free energy [kcal/mol]
1,ATTACCACGTGTGGCT,0.18
2,TGTGTCACGTGCAAAT,0.12
3,ACAGTCACGTGGCGGT,0.15
4,TGTCGCACGTGATGCG,0
5,GGGTGCACGTGACAGG,0.03
6,TACGTCACGTGGGGTA,-0.08
7,TGCTTCACGTGCTGGG,0.21
8,GGTAGCACGTGTGGTG,-0.01
9,GTCATCACGTGTATGT,0.2
10,CTGGTCACGTGGGTAA,-0.08
11,TCTGTCACGTGGGGCG,-0.06
12,AAATTCACGTGGCTGG,0.41
13,GTGCTCACGTGTCGTG,0.1
14,CTTTACACGTGTGGCG,0.15
15,GAGCGCACGTGTGAGT,0
16,TTTAACACGTGTTTGC,-0.02
17,TTGTACACGTGAAGTT,0.26
18,TTAAACACGTGTGGTC,-0.1
19,GAGGTCACGTGGGGCG,0
20,GGAGACACGTGGGATT,0.08
21,TAATCCACGTGCGGTG,0.28
22,ATTCTCACGTGGATTG,0.2
23,TGATTCACGTGAGGAA,0.38
24,ATTATCACGTGGGGCC,0.11
25,CGCGGCACGTGTGTTG,-0.16
26,GTATTCACGTGTTCGT,0.18

row,Sequence,relative binding free energy [kcal/mol]
1,TTTAGCACGTGTTCAG,0.14
2,TATGACACGTGGGTAG,-0.21
3,TTTTTCACGTGGGATG,0.31
4,TTGTTCACGTGCTCTG,0.14
5,GTTGGCACGTGTTGGA,0.02
6,GAGTGCACGTGGGAAA,0.15
7,TTGTACACGTGAACGT,0.2
8,ATTGCCACGTGGAATG,0.08
9,TGTAGCACGTGAGGCA,0
10,GTTCACACGTGGGGGC,0.08
11,GTAGGCACGTGGGCTC,-0.07
12,GGGGGCACGTGACGGC,-0.09
13,TGAGACACGTGAAGGA,0.24
14,TGGTTCACGTGCCGAG,0.12
15,GTGGGCACGTGGCGCT,-0.21
16,GAATTCACGTGATTTG,0.52
17,GTGGCCACGTGACGGT,0.14
18,TAGGTCACGTGAAGTT,0.4
19,GAGGACACGTGATTTT,0.28
20,CAGGGCACGTGGCGAT,-0.14
21,TAGTGCACGTGTGTAT,0.03
22,GGTGACACGTGTCGGA,0.14
23,CTTTGCACGTGCGGTG,-0.02
24,TGGCACACGTGTTCGT,0.1
25,TGGGTCACGTGATTTG,0.38
26,GCTTGCACGTGGTGTC,0.04

row,Sequence,relative binding free energy [kcal/mol]
1,ATTGTCACGTGCGTGG,0.02
2,CTGGGCACGTGAGTGC,0.07
3,GTGTACACGTGAAGGG,0.35
4,GTAGACACGTGTTGCG,0
5,TTTCACACGTGTGAGG,0.12
6,TGTTGCACGTGAACGT,0
7,CGATTCACGTGTAGGT,0.22
8,GAGTCCACGTGGAGGG,0
9,GGAAACACGTGAAGTT,0.37
10,AAGGGCACGTGGTACT,-0.16
11,AGTGACACGTGTTGTT,0.06
12,GTCATCACGTGTGGGT,0.21
13,CTTTTCACGTGGTATA,0.07
14,TAGTGCACGTGATTTT,-0.02
15,ATTATCACGTGTCGTT,0.14
16,CGAGTCACGTGGATTG,0.08
17,AACATCACGTGATGGG,0.29
18,GAATGCACGTGTTGAT,0.06
19,GTATTCACGTGCTTTG,0.36
20,TTAAGCACGTGTAAGT,0.03
21,ATTAGCACGTGTTCAG,-0.08
22,GGACACACGTGGGGAT,-0.02
